From PubChem BioAssay AID445 (National Center for Advancing Translational Sciences (NCATS), 2006)
About 40 (0.04%) of roughly 110,000 compounds were called active. Inconclusive results, whose numbers are uncertain, are shown with a selection of clear calls. Calls follow the shape of the dose curve; as a rule, active = well fitted curve in the direction sought with a large enough effect in the signal ratio (not every such curve was filed as active); inconclusive = small, poorly fitted or top-dose-only effect, or a change in a side signal; inactive = flat fitted curve, though single readings scatter; the % refers to the signal ratio. A potency beside an inconclusive call is a rough fit, not a confirmed value.

Assay: IkB Signaling;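 as to IkBa stabilization activation: 0% = basal untreated cells and 100% = reference inhibitor full response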
Conditions: ABC-DLBCL IkBa-CBG/CBR dual luciferase ratio (green luciferase fused to IkBa over red control in OCI-Ly3 lymphoma cells), 4 h; IkBa stabilization activation: at 57.1 µM (top of the series), scaled: untreated 0%, proteasome inhibitor 100% unless noted
Summary of the method: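 Curves were fitted separately to fusion (green), unfused (red) and ratio luminescence, then classed by r2, magnitude and activity. Cells: OCI-Ly3, 4 h compound plus doxycycline at 37C; 10 uM MG-132 defined full response.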
Potency is read from the fitted curve at half-maximal effect.

Row | SMILES | IkBa stabilization activation | Potency
1 | Cc1ccc2nc(-c3cccnc3)oc2c1 | inactive: -2.12% | 
2 | O=C(c1ncn[nH]1)N1CCN(c2nc(-c3ccccc3)cs2)CC1 | inactive: -1.36% | 
3 | Cc1ccc2c(CSc3nncs3)cc(=O)oc2c1 | inconclusive: 2.14% [signal inhibitor] | 
4 | O=C(Cn1c(=O)n(Cc2ccccc2)c(=O)c2oc3ccccc3c21)Nc1ccc(Cl)cc1 | inconclusive: 15.1% [signal inhibitor] | 
5 | CC(=O)Nc1cc(C(=O)NCc2ccc(F)cc2Cl)ccc1Sc1ccc(Cl)cc1 | inconclusive: -0.461% [signal inhibitor] | 
6 | CC1CCc2sc3c(c2C1)c1ncnn1c(=O)n3CC(=O)c1ccc(Br)cc1 (configuration not stated) | inactive: 0.368% | 
7 | COc1ccccc1NC(=O)Nc1nc(-c2cccnc2)nc2ccccc12 | inactive: 7.82% | 
8 | CCOC(=O)c1ccccc1N1C(=O)CSC1=S |  | inconclusive: 31.6 µM [rising, partial curve]
9 | Cc1ccc(CCNc2nc3c(S(=O)(=O)c4ccc(C)cc4)nnn3c3ccsc23)cc1 | inconclusive: 0.875% [signal inhibitor] | 
10 | O=C(CSc1nnc(C2CCCCC2)n1Cc1ccccc1)NCc1ccco1 | inactive: 4.77% | 
11 | Cc1ccc(-n2ncc3c(NCCCc4ccccc4)ncnc32)cc1C | inconclusive: 1.29% [signal inhibitor] | 
12 | Cc1ccc(-c2c3c(=O)n(C)c(=O)n(C)c3c3c(C(F)(F)F)nc4ccccc4n23)cc1 | inconclusive: 6.41% [signal inhibitor] | 
13 | CCOC(=O)c1[nH]c(C)c(CCC(=O)Nc2ccc(N(CC)CC)cc2C)c1C | inconclusive: -1.46% [signal inhibitor] | 
14 | CCOc1ccc(Cl)cc1S(=O)(=O)n1nnc2ccccc21 | inconclusive: 0.44% [signal inhibitor] | 
15 | COc1ccc2oc(=N)c(C(=O)Nc3ccccc3)cc2c1 | inconclusive: 3.84% [signal inhibitor] | 
16 | COCc1nc2c([nH]1)c(=O)n(C)c(=O)n2CC(C)C | inactive | 
17 | Cc1ccc2nc(-c3ccc(C)c(NC(=O)CSc4ccc(Cl)cc4)c3)oc2c1 | inactive: -2.46% | 
18 | COc1cccc(NC(=O)c2ccc(S(=O)(=O)N3CCCCC3)cc2)c1 | inconclusive: 4.5% [signal inhibitor] | 
19 | Cc1ccc2cccc(NC(=O)c3ccc(-c4cc(Cl)ccc4Cl)o3)c2n1 | inconclusive: 4.62% [signal inhibitor] | 
20 | Cc1ccc(C)n1-c1nnc(N2CCCC(C(=O)NCc3ccc(F)cc3)C2)s1 (configuration not stated) | inconclusive: 3.39% [signal inhibitor] | 
21 | O=C(NCc1ccc(Cl)cc1)c1cc2ccccc2o1 | inconclusive: 8.07% [signal inhibitor] | 
22 | Cc1ccc(Cl)cc1N1CCN(C(=O)Cn2cnc3nc4c(cc3c2=O)CCCC4)CC1 | inconclusive: 9.03% [signal inhibitor] | 
23 | NCCNc1ncnc2ccc(Cl)cc12 | inactive: -0.832% [at 11.4 µM, scaled: untreated 0%, proteasome inhibitor 100%] | 
24 | O=C(O)CCc1ccc(-c2cccs2)n1NC(=O)c1ccc(O)cc1 |  | inconclusive: 25.1 µM [signal inhibitor, partial curve]

Row | SMILES | IkBa stabilization activation | Potency
25 | COc1ccc(OC)c(NC(=O)c2ccc3c(c2)c(C)c(C)n3Cc2ccc(F)cc2)c1 | inactive: -1.34% | 
26 | O=C(NCc1cccc(Br)c1)c1cccn1-c1nnc(N2CCCCC2)s1 | inconclusive: 6.01% [signal inhibitor] | 
27 | O=C(CC(c1ccccc1)c1cc(Br)ccc1O)NCC1(c2ccccc2)CCCC1 (configuration not stated) |  | inconclusive: 7.94 µM [signal inhibitor]
28 | COc1ccc(CNC(=O)CCCc2cn(C)c3ccccc23)c(OC)c1 | inconclusive: 1.87% [signal inhibitor] | 
29 | CCOC(=O)c1ccc(NC(=O)Cc2ccc(-n3c(CC)nc4cccnc43)cc2)cc1 | inactive: -1.28% | 
30 | COC(=O)c1ccc(Oc2cc(C)nc(-n3nc(C)cc3C)n2)cc1 | inactive: -2.04% | 
31 | O=C(CCN1C(=O)COc2ccccc21)NCCN1CCN(c2cccc(Cl)c2)CC1 | inconclusive: 0.366% [signal inhibitor] | 
32 | CCCc1[nH]nc2c1C(C1CCCCC1)C(C#N)=C(N)O2 (configuration not stated) | inconclusive: 7.76% [signal inhibitor] | 
33 | O=C(CSc1nnnn1C1CCCC1)Nc1cccc(NC(=O)c2ccco2)c1 | inconclusive: 7.17% [signal inhibitor] | 
34 | COc1ccc(O)c(-c2cc(-c3cccc(Br)c3)n[nH]2)c1 | inconclusive: -8.05% [signal inhibitor] | 
35 | O=C(CCS(=O)(=O)c1ccc2c(c1)NC(=O)CO2)Nc1cccc(C(F)(F)F)c1 | inconclusive: 0.792% [signal inhibitor] | 
36 | COc1cc(C2c3c(-c4cc(Cl)c(C)cc4O)n[nH]c3C(=O)N2Cc2cccnc2)ccc1O (configuration not stated) | inconclusive: -8.34% [signal inhibitor] | 
37 | COc1ccc(NC(=O)Cn2nnc(C(=O)NCc3ccccc3Cl)c2N)cc1Cl | inconclusive: 0.97% [signal inhibitor] | 
38 | O=C(c1ccc2c(Cl)c3c(nc2c1)CCCC3)N1CCN(c2cccc(Cl)c2)CC1 | inconclusive: 2.87% [signal inhibitor] | 
39 | O=c1nc2s/c(=C\c3ccco3)c(=O)n2nc1Cc1ccccc1 |  | inconclusive: 15.8 µM [signal inhibitor, partial curve]
40 | Nc1nonc1-c1nc2ccccc2n1CC(=O)N1CCN(c2ccc(F)cc2)CC1 | inactive: 1.91% | 
41 | Cc1c(C)n(C)c2ccc(C(=O)NCCCN3CCCCC3)cc12 | inactive: -0.34% | 
42 | Cc1ccc(-c2c(C(=O)NCCc3ccc(Cl)cc3)oc(=O)c3ccccc23)cc1 | inconclusive: 10.3% [signal inhibitor] | 
43 | Cc1cccc(N2C(=O)CCSC23C(=O)N(Cc2ccc(F)cc2)c2ccccc23)c1 (configuration not stated) | inconclusive: -0.359% [signal inhibitor] | 
44 | Cc1nnc(SCC(=O)NCc2ccccc2F)c2nn(-c3ccc(Cl)cc3)c(C)c12 | inactive: 7.43% | 
45 | COCCc1nn2c(=O)cc(COC(=O)c3ccc(C(C)(C)C)cc3)nc2s1 | inconclusive: 2.49% [signal inhibitor] | 
46 | CCCNC(=O)c1cc(-c2ccc(OC)cc2)on1 | inactive: 7.21% | 
47 | Fc1cccc(Cl)c1Cn1nnc2c(-n3ccnc3)ncnc21 | inconclusive: 4.19% [signal inhibitor] | 
48 | CN1CC(=O)N(CC(=O)Nc2ccc(Cl)c(C(F)(F)F)c2)c2ccccc2C1=O | inconclusive: 0.447% [signal inhibitor] | 

Row | SMILES | IkBa stabilization activation | Potency
49 | O=C1c2ccc(Oc3ccc4c(c3)C(=O)N(CCCCO)C4=O)cc2C(=O)N1CCCCO | inconclusive: 2.92% [signal inhibitor] | 
50 | O=C1C(c2[nH]c3ccccc3c2O)=Nc2ccccc21 |  | active: 2.51 µM
51 | CCC(=O)Oc1ccc(-c2nc3ccccc3c(=O)o2)cc1 |  | inconclusive: 25.1 µM [signal inhibitor, partial curve]
52 | CCN(c1ccc(Cl)cc1)S(=O)(=O)c1nnc(NC(=O)C(C)C)s1 | inconclusive: 1.21% [signal inhibitor] | 
53 | Cc1ccc(-n2ncc(C(=O)N3CCN(Cc4ccccc4)CC3)c2C2CCN(C(=O)OC(C)(C)C)CC2)c(C)c1 | inconclusive: 1.48% [signal inhibitor] | 
54 | COc1cc(OC)cc(C(=O)Nc2cccc(N3CCCC3)c2)c1 | inconclusive: 3.82% [signal inhibitor] | 
55 | CC(C)(C)OC(=O)N1CCC(c2c(C(=O)NCc3ccco3)cnn2-c2ccc(F)cc2)CC1 | inconclusive: 6.23% [signal inhibitor] | 
56 | COc1cccc(-c2nc(CS(=O)CC(=O)NCCCOC(C)C)c(C)o2)c1 (configuration not stated) | inactive: 0.569% | 
57 | c1ccc(OCCSc2nnnn2C2CCCCC2)cc1 | inactive: -1.58% | 
58 | COc1ccc(-c2nnc(SCC(=O)Nc3ccc(F)cc3)s2)cc1 | inconclusive: 1.55% [signal inhibitor] | 
59 | CN(C)c1ccc(C(CNS(=O)(=O)c2ccc(Br)cc2)N2CCOCC2)cc1 (configuration not stated) | inactive: 1.25% | 
60 | Cc1cc(N2CCN(C(c3ccccc3)c3ccc(Cl)cc3)CC2)n2ncnc2n1 (configuration not stated) | inconclusive: -8.58% [signal inhibitor] | 
61 | O=c1c2sc3ccccc3c2n(Cc2ccccc2F)c(=O)n1CCc1ccccc1 | inactive: 1.17% | 
62 | CC(=O)c1ccc(NC(=O)NCCc2c[nH]c3ccccc23)cc1 | inconclusive: 1.35% [signal inhibitor] | 
63 | CC(=O)N(c1cccc(C)c1)C1SC(=O)N(c2ccccc2)C1=O (configuration not stated) | inconclusive: 6.83% [signal inhibitor] | 
64 | Cc1cccc(-c2nc3scc(CCNC(=O)c4ccccc4Cl)n3n2)c1 | inconclusive: 1% [signal inhibitor] | 
65 | CC(C)c1nn2c(=O)cc(COC(=O)c3ccc(NC(=O)CCc4ccccc4)cc3)nc2s1 | inconclusive: 1.01% [signal inhibitor] | 
66 | CCOC(=O)Cn1c(=O)oc2cc(S(=O)(=O)Nc3c(C)cc(C)cc3C)ccc21 | inconclusive: 4.89% [signal inhibitor] | 
67 | CC1CCN(CCNC(=O)c2ccc(Cn3c(SCc4ccccc4)nc4cccnc43)cc2)CC1 | inconclusive: 4.84% [signal inhibitor] | 
68 | COc1ccccc1CNC(=O)c1cccc(Nc2nc3ccccc3n3nnnc23)c1 | inconclusive: 10.6% [signal inhibitor] | 
69 | Fc1ccc(C2=Nn3c(Cc4ccccc4)nnc3SC2)cc1 | inactive: -1.29% | 
70 | Cc1ccc2nc(N3CCN(c4cccc(C)c4C)CC3)c3nnnn3c2c1 | inconclusive: 8.88% [signal inhibitor] | 
71 | CCC1CN(C(=O)N2CCC(C(=O)NCc3cccs3)CC2)c2cc(C)ccc2O1 (configuration not stated) | inconclusive: 3.53% [signal inhibitor] | 
72 | O=C(CC1(O)C(=O)N(CCc2ccccc2)c2ccc(Br)cc21)c1ccccc1O (configuration not stated) | inconclusive: -7.51% [signal inhibitor] | 
